# From the supplement of paper PMC8728848
# Some of the results follow.
# Key:
# Assay in all cases: glycan array binding signal (z-score within array); higher = stronger binding
# Conditions in all cases: glycan notation: IUPAC condensed, linker removed
# [1] = target: Gal(b1-3)[Neu5Ac(a2-6)]GlcNAc(b1-6)Gal(b1-4)Glc
# Summary of the method: (§1)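 Columns mapping to the same glycan were averaged after glycan names were converted to IUPAC-condensed notation. The data come from 3228 arrays in the Consortium for Functional Glycomics database, limited to those with an available protein sequence. Binding is reported as a within-array Z-score averaged across arrays of one protein sequence and across linkers.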
# [2] = target: Gal(b1-3)[Neu5Ac(b2-6)]GalNAc
# Summary of the method: as §1
# Gal(b1-4)Gal = target: Gal(b1-4)Gal
# Summary of the method: as §1
# [3] = target: Gal(b1-4)GalNAc(a1-3)[Fuc(a1-2)]Gal(b1-4)GlcNAc
# Summary of the method: as §1
# [4] = target: Gal(b1-4)GalNAc(b1-3)[Fuc(a1-2)]Gal(b1-4)GlcNAc
# Summary of the method: as §1
# Gal(b1-4)Glc = target: Gal(b1-4)Glc
# Summary of the method: as §1
# Gal(b1-4)Glc6S = target: Gal(b1-4)Glc6S
# Summary of the method: as §1
# Gal(b1-4)GlcNAc = target: Gal(b1-4)GlcNAc
# Summary of the method: as §1
# [5] = target: Gal(b1-4)GlcNAc(a1-6)Gal(b1-4)GlcNAc
# Summary of the method: as §1
# Gal(b1-4)GlcNAc(b1-2)Man = target: Gal(b1-4)GlcNAc(b1-2)Man
# Summary of the method: as §1
# [6] = target: Gal(b1-4)GlcNAc(b1-2)Man(a1-3)Man(b1-4)GlcNAc(b1-4)GlcNAc
# Summary of the method: as §1
# [7] = target: Gal(b1-4)GlcNAc(b1-2)Man(a1-3)[Gal(b1-4)GlcNAc(b1-2)Man(a1-6)]Man(b1-4)GlcNAc(b1-4)GlcNAc
# Summary of the method: as §1
# [8] = target: Gal(b1-4)GlcNAc(b1-2)Man(a1-3)[Gal(b1-4)GlcNAc(b1-2)Man(a1-6)]Man(b1-4)GlcNAc(b1-4)[Fuc(a1-6)]GlcNAc
# Summary of the method: as §1
# [9] = target: Gal(b1-4)GlcNAc(b1-2)Man(a1-3)[Gal(b1-4)GlcNAc(b1-2)Man(a1-6)][Gal(b1-4)GlcNAc(b1-4)]Man(b1-4)GlcNAc(b1-4)[Fuc(a1-6)]GlcNAc
# Summary of the method: as §1
# [10] = target: Gal(b1-4)GlcNAc(b1-2)Man(a1-3)[Gal(b1-4)GlcNAc(b1-2)Man(a1-6)][GlcNAc(b1-4)]Man(b1-4)GlcNAc(b1-4)[Fuc(a1-6)]GlcNAc
# Summary of the method: as §1
# [11] = target: Gal(b1-4)GlcNAc(b1-2)Man(a1-3)[GlcNAc(b1-2)Man(a1-6)]Man(b1-4)GlcNAc(b1-4)GlcNAc
# Summary of the method: as §1
# [12] = target: Gal(b1-4)GlcNAc(b1-2)Man(a1-3)[GlcNAc(b1-4)][Gal(b1-4)GlcNAc(b1-2)Man(a1-6)]Man(b1-4)GlcNAc(b1-4)GlcNAc
# Summary of the method: as §1
# [13] = target: Gal(b1-4)GlcNAc(b1-2)Man(a1-3)[Man(a1-6)]Man(b1-4)GlcNAc(b1-4)GlcNAc
# Summary of the method: as §1
# [14] = target: Gal(b1-4)GlcNAc(b1-2)Man(a1-6)Man(b1-4)GlcNAc(b1-4)GlcNAc
# Summary of the method: as §1
# [15] = target: Gal(b1-4)GlcNAc(b1-2)Man(a1-6)[GlcNAc(b1-2)Man(a1-3)]Man(b1-4)GlcNAc(b1-4)GlcNAc
# Summary of the method: as §1
# [16] = target: Gal(b1-4)GlcNAc(b1-2)Man(a1-6)[Man(a1-3)]Man(b1-4)GlcNAc(b1-4)GlcNAc
# Summary of the method: as §1
# [17] = target: Gal(b1-4)GlcNAc(b1-2)[Gal(b1-4)GlcNAc(b1-4)]Man(a1-3)[Gal(b1-4)GlcNAc(b1-2)Man(a1-6)]Man(b1-4)GlcNAc(b1-4)GlcNAc
# Summary of the method: as §1
binder,measurement,setting,value
AMA (Arum maculatun) (protein) MAKLLLLLLLPAIVGLAVPRSAAAVGSNYMLSGETLNTDGRLTNGELTLIMQVDCNLVLYHGGWQSNTANNGRDCKLTLTDFGELVIKSGTGSTVWSSGSKQSMKGNYAAVVHPEGRLVIYGPSVFKINPSGAGLNGLPLRNIPLTNNMLFSGQVLYGDGTLSARNHKLVMQGDCNMVLYGGKYGWQSNTHGNGKYCFAMLTHKGELVIRDDDFKSVWSSKSSSKQGDYVFILQDDSLAIIYGPAVFSTGSKKMISMVTN,glycan array binding signal (z-score),[1],-0.198
same,glycan array binding signal (z-score),[2],-0.22
same,glycan array binding signal (z-score),Gal(b1-4)Gal,-0.213
same,glycan array binding signal (z-score),[3],-0.216
same,glycan array binding signal (z-score),[4],-0.218
same,glycan array binding signal (z-score),Gal(b1-4)Glc,-0.217
same,glycan array binding signal (z-score),Gal(b1-4)Glc6S,-0.214
same,glycan array binding signal (z-score),Gal(b1-4)GlcNAc,-0.213
same,glycan array binding signal (z-score),[5],-0.215
same,glycan array binding signal (z-score),Gal(b1-4)GlcNAc(b1-2)Man,-0.205
same,glycan array binding signal (z-score),[6],-0.215
same,glycan array binding signal (z-score),[7],3.36
same,glycan array binding signal (z-score),[8],0.127
same,glycan array binding signal (z-score),[9],-0.215
same,glycan array binding signal (z-score),[10],-0.224
same,glycan array binding signal (z-score),[11],2.21
same,glycan array binding signal (z-score),[12],-0.218
same,glycan array binding signal (z-score),[13],0.479
same,glycan array binding signal (z-score),[14],-0.214
same,glycan array binding signal (z-score),[15],1.81
same,glycan array binding signal (z-score),[16],0.496
same,glycan array binding signal (z-score),[17],1.79
